According to PubChem BioAssay (NCI):
Values joined by “and” are separate entries in the source; they are usually repeats but may differ in a detail not shown here. Equal values may be shown once.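 Growth conditions: 96-well plates. Treatment: test compound, 48 hours, 5 concentrations. Analysis: linear interpolation between bracketing concentrations; unreached endpoints set to highest concentration. At the GI50, growth is halved. TGI denotes the concentration required for complete inhibition of growth.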

Test system: NCI-H322M lung
Assay: NCI anticancer screen, dose series, 48 h

SMILES | TGI | GI50
COc1cc(O)c(C(=O)/C=C/c2ccc(O)cc2)cc1Oc1ccc(C(=O)/C=C/c2ccc(O)cc2)c(O)c1 | 9.37 µM | 
O=C1C(c2ccccc2)=C(c2ccccc2)C(c2ccccc2)/C1=C1\C(=O)C(c2ccccc2)=C(c2ccccc2)C1c1ccccc1 (stereo not given) | > 100 µM | 
Cn1c2ccccc2c2c3c(c4c5ccccc5n(CCCCCC#N)c4c21)C(=O)N(O)C3=O | 10.3 µM | 2.65 µM
CCOc1ccc(NC(=O)C2=C(C)NC(C)=C(C(=O)Nc3ccc(OCC)cc3)C2c2ccc([N+](=O)[O-])cc2)cc1 | > 100 µM | 
CC1OC(OC2C(CO)OC(O[C@H]3CC[C@@]4(C)C(=CC[C@H]5[C@@H]6C[C@@H]7O[C@](O)(CC[C@@H](C)COC8OC(CO)C(O)C(O)C8O)[C@@H](C)[C@@H]7[C@@]6(C)CC[C@@H]54)C3)C(OC3OC(C)C(O)C(O)C3O)C2O)C(O)C(O)C1O (stereo not given in full) | 14 µM | 3.97 µM
Cc1c2c(nn1-c1ccc(S/N=C3\SCC(=O)CN3c3ccccc3)cc1)-c1ccccc1CC2 | > 50 µM | > 50 µM
O=S1(=O)CSc2ccc3ccccc3c2-c2c1ccc1ccccc21 | > 100 µM | 
O=c1[nH]c2ccc(CC(=S)N3CCN(c4ccccc4)CC3)cc2s1 | > 100 µM | 
CC(=O)NC1C(OCC(=O)NC(C)C(=O)NC(CCC(=O)NCCCCCNc2ccc([N+](=O)[O-])c3[nH]c4ccccc4c(=O)c23)C(N)=O)C(O)C(CO)OC1(C)OCc1ccccc1 (stereo not given) | > 50 µM | 
CC(C)(C)c1ccccc1NS(=O)(=O)c1ccccc1 | > 100 µM | 
CCOC(=O)/C(O)=C(\C=N\C(=S)Nc1ccc(Cl)c(Cl)c1)C(=O)OCC | > 100 µM | 
N#CC(C(=O)c1ccccc1F)c1nc2cc(C(F)(F)F)ccc2s1 (stereo not given) | 82.9 µM | 
Cn1c(=O)c(F)c(Nc2ccc(I)cc2F)c2c(=O)n(C[C@@H](O)CO)cnc21 | > 100 µM | 0.0163 µM and 0.0245 µM
CC1(C)OC1CC/C(=C/CBr)CBr (stereo not given) | 41.6 µM | 
CC(=O)OC1COC(N2C(=O)C(=O)c3cc(Br)c([N+](=O)[O-])cc32)C(OC(C)=O)C1OC(C)=O (stereo not given) | > 100 µM | 
COCOc1cc(OC)ccc1C=O | > 100 µM | 
N#Cc1c2ccccc2c2nnc3cc(Cl)c(Cl)cc3n12 | > 100 µM | 87.1 µM
Cc1ccc(S(=O)(=O)N2CCCCC2CCO)cc1 (stereo not given) | > 100 µM | 
N#Cc1ccc(Nc2nc3nc[nH]c3c(=O)[nH]2)cc1 | > 100 µM | 
COc1cccc(-n2nnc3c(N)nc(N)nc32)c1 | > 100 µM | 
C#CCNC(Cc1ccccc1)C(=O)O (stereo not given) | > 100 µM | 
c1ccc(/C(=N/Nc2cnccn2)c2ncccn2)cc1 | > 100 µM | 

SMILES | TGI | GI50
COc1nc2c(nc(N)n2C2OC(CO)C(O)C(O)C2O)c(=O)n1C (stereo not given) | > 100 µM | 
COC(=O)c1ccc2c(c1)nc(-c1ccc(Cl)cc1)n2-c1cc(C(C)(C)C)[nH]n1 | 86.4 µM | 10.4 µM
NC(=O)c1cc2ccccc2c(N=Nc2ccccc2)c1O | > 100 µM | 
CCN(CCCl)CCNc1c2ccccc2nc2ccc(OC)cc12 | 3.92 µM | 
OC1(c2ccc(Cl)cc2)c2ccccc2C2=Nc3ccccc3CN21 (stereo not given) | > 100 µM | 
CC(=O)Nc1ccc(C(=O)N[C@@H]2C(=O)N3[C@@H]2SC(C)(C)[C@@H]3C(=O)O)cn1 | > 100 µM | 
Cc1c2cc[n+](C)cc2c(C)c2c1[nH]c1ccc(O)cc12 | 66.5 µM | 
Cc1ccc(/C=C2\CCOC2=O)cc1 | > 100 µM | > 100 µM
C=C1C(=O)O[C@H]2[C@H]1CC/C(Cn1cc(CCC)nn1)=C\CC[C@@]1(C)O[C@@H]21 | 59.5 µM | 21.5 µM
CC(=O)C1=CC=C/C1=N\Nc1ccccc1 | 23 µM | 
O=c1c(-c2ccccc2)c[nH]c2cc([N+](=O)[O-])c(/C(Cl)=C/c3ccccc3)cc12 | > 46.4 µM | 
N#CC(C#N)=C1NC(=O)C(c2ccccc2)C(=O)N1 (stereo not given) | > 100 µM | 
Oc1ccc2ccccc2c1/C=N\Nc1ccccn1 | 1.46 µM | 0.257 µM
O=C(Nc1ccccc1Cl)c1ccc(NC2=C(Cl)C(=O)N(Cc3ccccc3)C2=O)cc1 | > 100 µM | > 100 µM
Cc1[nH]n(C(=O)c2ccccc2O)c(=O)c1/C=C1\C(=O)C=Cc2ccccc21 | > 73 µM | 
Cn1c2ccccc2n2c(=O)c(-c3ccc(O)cc3)nnc12 | > 100 µM | 
NS(=O)(=O)c1ccc(-n2nc(-c3ccc(Cl)cc3)cc2C2=CC(=O)C=CC2=O)cc1 | 56.4 µM | 17.7 µM
COc1cccc2c1C(=O)c1c(O)c3c(c(O)c1C2=O)C[C@@](O)(C(C)=O)C[C@@H]3OC1CC(N)C(O)C(C)O1 (stereo not given in full) |  | 0.0968 µM
CCN(CC)P1(=S)Oc2ccc3ccccc3c2-c2c(ccc3ccccc23)O1 | > 100 µM | 
CCCCOC(=O)N[C@H]1CCc2cc(OC)c(OC)c(OC)c2-c2ccc(SC)c(=O)cc21 | 15.4 µM | 
CCOc1ccc2c(c1)/C(=C\C=C\C1CC(C)C3CC(OCC)CCC3N1CC)CC(C)N2CC (stereo not given) | 3.53 µM | 1.52 µM
CCC(=O)O[C@@H]1C2C(OC(C)=O)C34COC(C)([C@@H]3C3C(C[C@]3(C)OC(C)=O)[C@@H](OC(=O)c3ccccc3)C4=O)[C@H](OC(C)=O)[C@@]2(OC(C)=O)C[C@@H]1C (stereo not given in full) | > 100 µM | 

SMILES | TGI | GI50
O=[N+]([O-])c1ccccc1S(=O)(=O)N1CCCc2cc(Cl)ccc21 | > 100 µM | 
S=C1c2cc(Cl)ccc2NC(=NC2CCCC2)C2CSCN12 (stereo not given) | > 100 µM | 
CC1(C)COC(c2cccc(C3=NC(C)(C)CO3)c2)=N1 | > 100 µM | 
CC1(c2cccc(C3CCC4(C=CC3=O)OCCO4)c2)OCCO1 (stereo not given) | 45.5 µM | 
Cc1cc(S(N)(=O)=O)c(S/C(=N\NS(=O)(=O)c2ccc(Cl)cc2)c2ccc(Cl)cc2)cc1Cl | > 100 µM | > 100 µM
CCCCCOP(=O)(OCCCCC)C(NC(C)=O)(C(=O)OCC)C(F)(F)F (stereo not given) | > 100 µM | 
CC1SC(c2cccs2)N(NC(=O)C(O)c2ccccc2)C1=O (stereo not given) | > 100 µM | > 100 µM
CC(C)(C)[Si](C)(C)OCC1OC(n2ccc(=O)[nH]c2=O)C(O[Si](C)(C)C(C)(C)C)/C1=N/O (stereo not given) | 18.4 µM | 
CCC1OC2C(CC=C(C)C)=C3OC(C)(O)C(C)(CC)C(O)C3=C3OC(=O)C=C1C32 (stereo not given) | > 100 µM | 
CCOC(=O)c1cc(-c2ccc(OC)c(OC)c2)cn1C | > 10 µM | 
O=c1c2ccccc2nc(-c2ccc(Cl)cc2)n1O | > 100 µM | 
COc1ccc(Cc2ccccc2C(=O)O)c2ccccc12 | > 100 µM | 
CN(C)/[N+]([O-])=N/Oc1cc(Nc2ccc(C(=O)O)cc2)c([N+](=O)[O-])cc1[N+](=O)[O-] | 24.6 µM | 10.8 µM
NC12c3c4cccc3Oc3cccc(c31)Oc1cccc(c12)O4 | > 50 µM | 
O=Nc1c(-c2cccc([N+](=O)[O-])c2)nc2ncccn12 | 88.1 µM | 25.1 µM
Cc1cccc(C)c1NC(=O)C(=O)C1C(=O)N(c2ccccc2)N=C1N (stereo not given) | > 100 µM | 
CN1CCN(c2ccc3nc(-c4ccc(OCCCN5C(=O)c6cccc7cccc(c67)C5=O)cc4)[nH]c3c2)CC1 | 62.5 µM | 16.4 µM
C(=N\NC1=NCCCN1)/c1ccc(-c2cn3cc(/C=N/NC4=NCCCN4)ccc3n2)cc1 | > 100 µM | 
O=C(/C=N/O)c1c(-c2ccccc2)[nH]c(-c2ccccc2)c1-c1ccccc1 | 24.6 µM | 
N=C(/C=C/c1ccc(-c2cn3cc(/C=C/C(=N)N4CCOCC4)ccc3n2)cc1)N1CCOCC1 | > 100 µM | 
O=C1c2cccnc2-c2nc(-c3ccc([N+](=O)[O-])cc3)cc3c2c1nc1ccccc13 | 21 µM | 6.33 µM
C=C1C(=O)O[C@H]2[C@H]1CC/C(COC(=O)CCC(=O)OC/C1=C/CC[C@@]3(C)O[C@H]3[C@H]3OC(=O)C(=C)[C@@H]3CC1)=C\CC[C@@]1(C)O[C@@H]21 | 24.7 µM | 12.3 µM
